Experimental data as given in PubChem BioAssay AID463173 (ICCB-Longwood Screening Facility, Harvard Medical School, 2010).
Screen size: about 52,000 compounds; about 1,700 (3.3%) were called active. No stated cut-off is given here; in the data, active means survival mostly below about 52% (no sharp cut-off); inactive means mostly above about 56%. This is one part of the list.

Each compound was assayed on Wild type (assay: S. aureus survival, RN4220 and DeltatarO strains – OD600, teichoic acid synthesis inhibitors, primary screen (AID 463173)). Conditions: S. aureus RN4220 wild type/DeltatarO growth, OD600, 18 h, stronger effect = lower value; concentration not given here unless noted.

Row | SMILES | survival
1 | CCOc1ccc2nc(NC(=O)c3cccn(Cc4ccc(C)cc4)c3=O)sc2c1 | inactive: 76%
2 | O=C(Nc1ccc(F)c(Cl)c1)N(Cc1ccc2c(c1)OCO2)C1CCN(Cc2ccccc2)CC1 | inactive: 74%
3 | Nc1c(C(=O)Nc2ccc(F)c(Cl)c2)sc2nc3c(cc12)N1CCC3CC1 | inactive: 105%
4 | O=C(Nc1ccc2c(c1)OCO2)c1cccn(Cc2ccccc2)c1=O | inactive: 68%
5 | O=C(Nc1ccon1)c1cccn(Cc2cccc([N+](=O)[O-])c2)c1=O | inactive: 135%
6 | O=C(Nc1ccccc1)N(Cc1ccc2c(c1)OCO2)C1CCN(Cc2ccccc2)CC1 | inactive: 78%
7 | COC(=O)c1ccccc1NC(=O)c1cccn(Cc2cccc(Cl)c2)c1=O | inactive: 75%
8 | CC1CN2CCC3=C(CCCC3)C2(C)C1 (stereo not drawn) | inactive: 95%
9 | O=c1c2ccccc2nc(CN2CCCCC2)n1-c1ccccc1 | inactive: 105%
10 | CC12CN3CN(C1)CC(C)(C3)C2=O | inactive: 107%
11 | O=c1c2ccccc2[nH]c(=S)n1-c1ccccc1 | inactive: 108%
12 | CN1CCC2(CC1)CC(NC=O)c1ccccc1O2 (stereo not drawn) | inactive: 108%
13 | Cc1ccc(-c2nc(CN3C(=O)CN=C(c4ccccc4Cl)c4cc(Cl)ccc43)c(C)o2)cc1 | inactive: 90%
14 | COc1ccc(C=C2C(=O)NC(=S)NC2=O)cc1 | inactive: 96%
15 | O=C(Nc1ccc2c(c1)OCCO2)c1cccn(Cc2ccccc2)c1=O | inactive: 85%
16 | c1ccc(CN2CCNCC2)nc1 | inactive: 100%
17 | COc1ccc(C(CN)CC(=O)O)cc1 (stereo not drawn) | inactive: 112%
18 | Cc1cccc(Cn2cccc(C(=O)Nc3nnc(C)s3)c2=O)c1 | inactive: 71%
19 | Cc1ccc(NC(=O)CN2C(=O)CN=C(c3ccccc3)c3ccccc32)cc1Cl | inactive: 127%
20 | O=C(Cc1ccccc1)N1CCN(C2CCCC2)CC1 | inactive: 103%
21 | N#Cc1cc2c(nc1SCC(=O)Nc1cccc(C(F)(F)F)c1)C1CCN2CC1 | active: 0%

Row | SMILES | survival
22 | COc1ccc(C(c2c(O)c3ccccc3oc2=O)c2c(C)n(C)n(-c3ccccc3)c2=O)cc1 (stereo not drawn) | inactive: 61%
23 | CCSc1nnc(NC(=O)c2cccn(Cc3ccccc3Cl)c2=O)s1 | inactive: 71%
24 | CCOc1ccccc1NC(=O)c1cccn(Cc2ccccc2C)c1=O | inactive: 82%
25 | O=CNc1nonc1NNc1nonc1NC=O | inactive: 100%
26 | CC(=O)c1cccc(NC(=O)c2cccn(Cc3cccc(C)c3)c2=O)c1 | inactive: 82%
27 | OC1(c2cccc(F)c2)CC2CCC(C1)N2Cc1nnnn1CCc1ccccc1 (stereo not drawn) | inactive: 105%
28 | COc1ccc(NC(=O)CN2C(=O)C(C)N=C(c3ccccc3)c3ccccc32)cc1OC (stereo not drawn) | inactive: 127%
29 | Cc1ccc(Cn2cccc(C(=O)Nc3nc4ccc(C)cc4s3)c2=O)cc1 | inactive: 127%
30 | Cc1c(/C(CC(C)C)=N/O)c2ccccc2n1C | inactive: 113%
31 | O=C(O)C12C3CCCC1C32c1ccccc1 (stereo not drawn) | inactive: 111%
32 | CCc1ccc(-n2nc(C)c3c2NC(=O)CSC3c2ccccc2C)cc1 (stereo not drawn) | inactive: 84%
33 | Cc1[nH]c2c(C)cccc2c1CCN | inactive: 129%
34 | Cc1ccc(OCC(=O)Nc2ccc(Cl)cc2C(=O)c2ccccc2)c(Br)c1 | inactive: 84%
35 | Cc1cc(C)cc(NC(=O)CN2C(=O)CN=C(c3ccccc3)c3cc(Cl)ccc32)c1 | inactive: 82%
36 | O=C(COc1ccc(Br)cc1)Nc1ccc(Cl)cc1C(=O)c1ccccc1 | inactive: 72%
37 | c1cnc2c(c1)ncn2C1CCNCC1 | inactive: 84%
38 | COc1ccc(CCNC2CCCCC2)cc1OC | inactive: 117%
39 | COc1cccc(-n2c(/C=C\c3ccc(Cl)cc3)nc3ccccc3c2=O)c1 | inactive: 48%
40 | Cc1ccc(C(C)(C)C)c(OCC(=O)Nc2ccc(Cl)cc2C(=O)c2ccccc2)c1 | inactive: 65%
41 | CCN1CCN(Cc2nnnn2C(C)(C)C)CC1 | inactive: 95%
42 | Cc1ccnc(NS(=O)(=O)c2ccc(N=Cc3c(O)n(C)c(=O)n(C)c3=O)cc2)n1 | inactive: 96%

Row | SMILES | survival
43 | COc1ccc(C(C(=O)NC2CCCCC2)N(CCN2CCOCC2)C(=O)Cc2c[nH]c3ccccc23)cc1OC (stereo not drawn) | inactive: 105%
44 | Cc1ccc(OCC(=O)N2CCN(Cc3ccc(F)cc3)CC2)cc1 | inactive: 126%
45 | Cc1cccc(OCC(=O)N2CCN(Cc3cc(=O)n4nc(-c5ccccc5Cl)sc4n3)CC2)c1 | inactive: 97%
46 | CCC12CN3CN(C1)CC(CC)(C3)C2O (stereo not drawn) | inactive: 106%
47 | Cc1ccccc1-c1nn2c(=O)cc(CN3CCN(C(=O)COc4ccccc4Cl)CC3)nc2s1 | inactive: 140%
48 | CCC(N)C(=O)c1ccc(Cl)cc1 (stereo not drawn) | inactive: 105%
49 | Cc1ccc(-n2c(/C=C\c3ccc(F)c(F)c3)nc3ccccc3c2=O)c(C)c1 | inactive: 68%
50 | O=C1NC(=O)C(CCc2ccncc2)(c2ccccc2)C(=O)N1 | inactive: 106%
51 | COc1cccc(N=Cc2c(O)n(Cc3ccco3)c(=O)[nH]c2=O)c1 | inactive: 102%
52 | Cc1ccc2nc(NC(=O)c3cccn(Cc4ccccc4F)c3=O)sc2c1 | inactive: 88%
53 | Cc1ccc2c(=O)n(-c3cccc(Cl)c3)c(=O)[nH]c2c1 | inactive: 76%
54 | COc1cc2[nH]c(=O)n(-c3ccc(C)cc3)c(=O)c2cc1OC | inactive: 71%
55 | CCN(CC)C(=O)c1ccc(NC(=O)COc2ccc(-c3nn(C)c(=O)c4ccccc34)cc2)cc1 | inactive: 93%
56 | C=CCN1C(=O)NC(=O)/C(=C/c2ccc(OCC(=O)O)c(OCC)c2)C1=O | inactive: 100%
57 | CN1CCC(NCCO)CC1 | inactive: 105%
58 | Cc1ccccc1-c1nc(CN2C(=O)CN=C(c3ccccc3)c3ccccc32)c(C)o1 | active: 2%
59 | COc1ccccc1-c1nn2c(=O)cc(CN3CCN(C(=O)COc4ccccc4Cl)CC3)nc2s1 | inactive: 85%
60 | CCc1ccc(-n2nc(C)c3c2NC(=O)CSC3c2ccc(C(=O)OC)cc2)cc1 (stereo not drawn) | inactive: 89%
61 | CN1CCC2(CC1)CC(=O)c1ccccc1O2 | inactive: 107%
62 | O=C(Nc1ccc(Br)cc1C(=O)c1ccccc1Cl)c1ccc(Br)cc1 | inactive: 136%
63 | COc1cc(OC)cc(C(=O)Nc2ccc(Cl)cc2C(=O)c2ccccc2Cl)c1 | inactive: 139%
